The source of these data is the supplement of paper PMC11417369.

The list shows a part of the results.

The assay has as its system PF3D7_0420300 AP2 domain 1 (GST-tagged). The experiment in a line: gcPBM binding intensity (ln(normalized median fluorescence intensity)); higher = stronger DNA binding. The method, boiled down: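 Plasmodium falciparum DNA-binding domains carrying a GST tag were expressed in E. coli and applied for 1 h, at about 25 μg on average, to an Agilent 4 × 180k array. The array held primer-extended double-stranded 36-bp intergenic genomic probes together with negative controls, and binding took place in 1× PBS with 1% milk, 0.2 mg/ml BSA, 0.5% salmon testes DNA and 0.03% Triton X-100. An Alexa488 anti-GST antibody detected bound protein, and the array was scanned at 488 nm. Binding intensity is taken as the highest Masliner-normalised natural-log median intensity across replicate spots of either probe orientation.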
Regarding “AAATGTAATAATAAATGTACAAACATATATATGTAT [XGTACX_site8718]”, the “gcPBM binding intensity (ln)” value was determined as 9.38. The value for “AAGTTTAAAATCTTTGCACACATATAAATAAATATA [CACACA_site2554]” was 9.26; that for “ATAAATAAATAAAAAAGTACATTTCCACTTTTAACA [XGTACX_site81]” was 9.2; that for “TGCACCCACCAACACACACACAACTAAAAAATAATG [CACACA_site2566]” was 9.86. As for ACATATTAAATATGAGTGCAATATATATATATATAA, the figure is 9.18. For “TATAATTATATAAATTGTACATAAAAAGTTTTTACT [XGTACX_site3621]”, the “gcPBM binding intensity (ln)” value worked out at 9.07.

In the case of “TATTATATCTTTTCAAGTACACATAACATACTTATT [XGTACX_site1081]”, the “gcPBM binding intensity (ln)” value was determined as 9.31.

As for “TTGTAATAAATAAAAGTGCATATATGGTTCCACTAT [GTGCAC_site9944]”, the “gcPBM binding intensity (ln)” value came to 9.19. The value for “AAGTATGTATCACAAAGTACTTAAGCATATATTTAA [XGTACX_site4121]” was 9.19; that for “TAAATATATTGGAGAGGTACACTTTTGGCATTGAAA [XGTACX_site8447]” was 9.18; that for “TTATTTTTTTATTCATGTACACAAGAACATTTCATT [XGTACX_site5744]” was 9.01.

In the case of “TACAAATATGGACACACACACATATATATATATATA [CACACA_site4488]”, the “gcPBM binding intensity (ln)” value stood at 9.97.

As to “GTATATATAATGTGCCGTACATTTATATATTCAATA [XGTACX_site1051]”, the “gcPBM binding intensity (ln)” value was 9.14. As for “GTATAATAGAAACACACACACACACCCAAAAAAAAA [CACACA_site2010]”, the figure is 10.3; as for “TTAAATGTAATATAATGTACGGATATTTACCATAAA [XGTACX_site1472]”, 9.24; as for “TATTTCTTATTACATACACACATATACATAGATGAC [CACACA_site5729]”, 9.55.

With “TCTTGTCTACCTTGTATTTAATATTTACATATATAA [TGCATGCA_negctrl_site320]”, the “gcPBM binding intensity (ln)” value was 9.52. The value for “TATTTGTAAAAATTGTGTACTTAGAAAATTCCAAAA [XGTACX_site6007]” was 8.93; that for “TATATGTTTTTATGTACACACTTTTAACCTAAGAAA [CACACA_site4769]” was 9.32; that for “TTCTTGTATATATTTTGTACATATATACCATTTTAG [XGTACX_site2409]” was 9.55. For “AAATGTATAGGAATAATAATAAAAAAAAAAAAAAAT [CACACA_negctrl_site1793]”, the “gcPBM binding intensity (ln)” value was 9.49. Consider “ATCATTCCACTTTTCACACATATCTCTATTTCTATC [CACACA_site4723]”, for which the “gcPBM binding intensity (ln)” value came out at 9.74. “AAAAAAAATAAAATAATAAAAATTATGAATATATAT [CACACA_negctrl_site280]”: the “gcPBM binding intensity (ln)” value is 9.29.

For “TGGAGGTCAGTTCACAGTACCCAGTAACTCTACGGA [XGTACX_site2549]”, the “gcPBM binding intensity (ln)” value turned out to be 8.96. As to “ATAGGTAATAATAATACACACGGTGAAATATAGATG [CACACA_site9336]”, the “gcPBM binding intensity (ln)” value stood at 9.82. Consider “AATAAAATGCAATACATTTTGTTATATAATGTTGTT [CACACA_negctrl_site1525]”, for which the “gcPBM binding intensity (ln)” value was 9.22.

For the sequence “CACAATGTAGTGTATAAATACAATAAAAGGTTGTAT [CACACA_negctrl_site700]”, the “gcPBM binding intensity (ln)” value was 9.4. Turning to “ATATTGTAAGTAAACACACACACATATATCTGTATA [CACACA_site4541]”, the “gcPBM binding intensity (ln)” value is 9.86. On to “TAAAGTGTAAAATTCACACACATATATATATATATA [CACACA_site4883]”, for which the “gcPBM binding intensity (ln)” value stood at 9.32. On to “ATTTTTTTTATTATTACACACATATAATAAAAAAAT [CACACA_site1802]”, for which the “gcPBM binding intensity (ln)” value came to 9.27. Turning to “ATTTTTTTTTTCTTTTTTTTTTGTTTTTCTCCTTTT [CACACA_negctrl_site1182]”, the “gcPBM binding intensity (ln)” value was found to be 9.5.

On to “GTATAATTTATTGAACGTACACATATATATATGTAT [XGTACX_site1395]”, for which the “gcPBM binding intensity (ln)” value was 9.39. As for “GTAAAATTTACATAGAGTACTTATATTTTTTTCTGC [XGTACX_site3414]”, the “gcPBM binding intensity (ln)” value was determined as 8.96. Take “CACAAATATACAAATACACACAAATATACAAATACA [CACACA_site2385]”: the “gcPBM binding intensity (ln)” value worked out at 10.

Consider “CAGTTTACTAATATTGCACACGAATATGAAAAAGAG [CACACA_site8941]”, for which the “gcPBM binding intensity (ln)” value amounted to 9.45. Consider TTATCATTTGCCATTGTGCACTTATATGCTCACATT, for which the “gcPBM binding intensity (ln)” value is 9.32. TTTTTTTTTCAAGAGGTGCGTGTATTTTAACAAAAA: the “gcPBM binding intensity (ln)” value was determined as 9.03.

With AAAAAAAATTATGAAGTGCATTAGTGAATTTGATTG, the “gcPBM binding intensity (ln)” value came to 9.24. Turning to “TTTTTCACACTTCAAAAGTGTCAACCTTCTATTCTC [TGCATGCA_negctrl_site489]”, the “gcPBM binding intensity (ln)” value stood at 9.15.

As to “TTGTCTACAAAAATGTGCTTCTAATCATACGACTTG [CACACA_negctrl_site46]”, the “gcPBM binding intensity (ln)” value came out at 8.97.

As for “TACATATATTATTGCACACATATAAAATACCCCCAA [CACACA_site3895]”, the “gcPBM binding intensity (ln)” value turned out to be 9.82.

“TATATTTTAATTTGAAGTACTAATATTTATTTATAT [XGTACX_site7458]”: the “gcPBM binding intensity (ln)” value worked out at 8.96. On to “TATAACCATATATACACACACATATAAATATAAATA [CACACA_site7089]”, for which the “gcPBM binding intensity (ln)” value stood at 9.78. Regarding “AAGGTGGAAACAATTACACACACACTAAAAAAAAAA [CACACA_site7493]”, the “gcPBM binding intensity (ln)” value stood at 9.96. ATATATATATATTTCGTGCACTGATAATATTATTTT: the “gcPBM binding intensity (ln)” value was determined as 9.33.

For the sequence “ATGAAAAAAAATAAAAAATATATATATATATATATA [CACACA_negctrl_site236]”, the “gcPBM binding intensity (ln)” value was 8.94. The value for “AAACTTTTTTTAAAAACACACATATAGATTTATATA [CACACA_site7842]” was 9.21. Take “TAGTTTTTTATATATTGTACAAATGATATATTATAT [XGTACX_site1002]”: the “gcPBM binding intensity (ln)” value was found to be 9.23.

Turning to “TATTTTTAAACAAAACTGTATTTATTTTTTAAAATT [CACACA_negctrl_site1449]”, the “gcPBM binding intensity (ln)” value came to 8.84. In the case of TTTTGTTATTTTTGTATGCACTACATATTATTATAT, the “gcPBM binding intensity (ln)” value came to 9.59.

As to “ATATATATATATAATTGTACATTTTTATGTTTTATA [XGTACX_site4560]”, the “gcPBM binding intensity (ln)” value was 9.41. For the sequence “GAAATTAAAAAATTTATGCACACTTTAAAAAAAAAA [CACACA_site3769]”, the “gcPBM binding intensity (ln)” value came to 9.08. As for “TTCATTAAAATTATTACACACAGTTCTTCAACCAAA [CACACA_site3504]”, the “gcPBM binding intensity (ln)” value worked out at 9.31. As for “ATATGTAGTTTTTATTGTACGTGTAGAAGAAATAAT [XGTACX_site6608]”, the figure is 9.43; as for “AATGATTTTCAATCGAAATGAAACTTAGAAGATATA [CACACA_negctrl_site1475]”, 9.01.

Take “TTTTAAACAGGACACACACACATATAGATTTATATA [CACACA_site6560]”: the “gcPBM binding intensity (ln)” value was found to be 9.93. The value for “TTTAAAATAACCAAAAACAAAAAGAAACACAAATGT [GTGCAC_negctrl_site705]” was 9.8.
